Laboratory results taken from US20090054312A1, “SMIPs: Small molecule inhibitors of p27 depletion in cancers and other proliferative diseases” (priority 2007, published 2009).

Columns and labels:
LNCaP-S14 cells = test: MTT viability assay, LNCaP-S14; type: cell-based, human; conditions: Table 4; for IC50: MTT, 72 h, read-out: IC50 (concentration of 50% growth inhibition), LNCaP-S14; for specificity for killing S14 prostate cancer cells versus IMR90: comparison of IC50 data
Procedure: We next explored the effects of SMIPs on cell viability. S14 and IMR90 cells were exposed to increasing concentrations of SMIPs for 72 h and scored for viability using the MTT assay. IC50 values (concentration of 50% growth inhibition) were calculated (Table 4).
We next compared IC50 values for cytotoxicity of SMIP004 in S14 compared with parental LNCaP cells. […] We are testing whether SMIP-induced cytotoxicity is due to apoptosis.

[1] = tested on: IMR90 normal human fibroblasts; test: MTT viability assay, IMR90; type: cell-based
Procedure: We next explored the effects of SMIPs on cell viability. […] IC50 values (concentration of 50% growth inhibition) were calculated (Table 4).

p27 levels in S14 cells = test: p27 immunoblotting in S14 cells; type: cell-based, human; conditions: for p27 upregulation by immunoblotting relative to DMSO: 40 μM single dose, 16 hours, normalized to tubulin, duplicate experiments; for p27 levels in S14 cells, control compounds: proteasome and CDK inhibitors
Procedure: S14 cells were treated with SMIPs (40 μM) for 16 hours and p27 levels were assayed by immunoblotting. The bar graph represents the average ±SD of two independent experiments normalized to tubulin.
A quantitation of duplicate immunoblotting experiments is shown.
(§1) Cytoplasmic and nuclear protein fractions were prepared and analyzed by immunoblotting with the indicated antibodies. Nucleolin and Tubulin signals served as nuclear and cytoplasmic markers. A quantification of the immunoblotting data is shown.
Next, we assessed the effect of SMIPs on p27 by immunoblotting (IB). S14 cells were incubated with a single dose of SMIPs (40 μM) and p27 levels were determined relative to the DMSO vehicle control. Tubulin reactivity was used as a reference.
In subsequent IB experiments performed in duplicate, we assessed the dose responses for the 3 selected SMIPs.
(§2) Cytoplasmic and nuclear protein fractions were prepared and p27 and SKP2 levels were measured by immunoblotting. For increased subcellular resolution, we also performed biochemical separation into nuclear and cytoplasmic fractions.

LNCaP cells = test: cell cycle distribution by flow cytometry, LNCaP; type: cell-based, human; conditions: 40 μM, 24 h and 48 h
Procedure: (§3) Cells treated with 40 μM of the indicated SMIPs for 24 and 48 h were analyzed by flow cytometry.
(§4) Finally, we determined the effect of SMIPs on cell cycle distribution. S14 and LNCaP cells were treated with 40 μM compound and harvested for flow cytometric measurement of DNA content after 24 h and 48 h.

S14 cells = test: cell cycle distribution by flow cytometry, S14; type: cell-based, human; conditions: 40 μM, 24 h and 48 h
Procedure: as §3, §4

[2] = tested on: p27 levels in LNCaP-S14 cells; test: p27 immunofluorescence screening assay in LNCaP-S14 cells; conditions: for % positive: Table 1, compounds showing SMIP activity in the secondary screen, p27-positive cells; for % positive / Z score: cell line not given; for Z score: Table 1, standard deviations from plate mean; for accumulation of p27, fold-induction normalized to DMSO: IF assay, 16 hours
p27 mRNA = test: qRT-PCR of p27 mRNA in S14 cells; type: cell-based, human; conditions: normalized to b-actin
Source text: (§5) All data were normalized to b-actin and are expressed as arbitrary units (AU).

[3] = tested on: nuclear p53 protein in S14 cells; test: p53 immunoblotting in S14 cells; type: cell-based, human; conditions: 18 h
Procedure: as §1

SKP2 mRNA = test: qRT-PCR of SKP2 mRNA in S14 cells; type: cell-based, human; conditions: normalized to b-actin
Source text: as §5

[4] = tested on: p27 levels in parental LNCaP cells; test: p27 immunoblotting in parental LNCaP cells; type: cell-based, human; conditions: increasing concentrations, 18 h
p21 mRNA = test: qRT-PCR of p21 mRNA in S14 cells; type: cell-based, human; conditions: normalized to b-actin
Source text: as §5

[5] = tested on: p27 levels in DU145 cells; test: p27 immunoblotting in DU145 cells; type: cell-based, human; conditions: increasing concentrations, 18 h
cyclin E = test: qRT-PCR of cyclin E in S14 cells; type: cell-based, human
Source text: as §5

[6] = tested on: SKP2 (endogenous SKP2 and Myc-SKP2) in S14 cells; test: SKP2 immunoblotting in S14 cell fractions; type: cell-based, human; conditions: 18 h, increasing concentrations
Procedure: as §1, §2

[7] = tested on: parental LNCaP cells (LNCaP-WT); test: cytotoxicity in parental LNCaP cells; type: cell-based; conditions: Homo sapiens
Source text: We are testing whether SMIP-induced cytotoxicity is due to apoptosis.

[8] = MTT, 72 h, Table 4, read-out: IC50 (concentration of 50% growth inhibition), IMR90
[9] = Homo sapiens, IMR-90, MTT, 72 h, Table 4, read-out: IC50 (concentration of 50% growth inhibition), IMR90
[10] = SMIP concentration 40 (maximum dose)

SMILES: CS(=O)(=O)c1ccc(C=CC(=O)Nc2cccc(C(F)(F)F)c2)cc1 [SMIP009]
- IC50 (LNCaP-S14 cells): > 40 µM
- IC50 [1, 8]: > 40 µM

SMILES: CS(=O)(=O)c1ccc(/C=C/C(=O)Nc2ccccn2)cc1 [SMIP010, 3-[4-(methylsulfonyl)phenyl]-N-(2-pyridinyl)-(2E)-propenamide]
- p27 upregulation by immunoblotting relative to DMSO (p27 levels in S14 cells): approximately two-fold
- IC50 (LNCaP-S14 cells; Homo sapiens): 3.56 µM
- specificity for killing S14 prostate cancer cells versus IMR90 (LNCaP-S14 cells): highest specificity
- effect on cell cycle distribution (LNCaP cells): did not alter cell cycle distribution
- effect on cell cycle distribution (S14 cells): did not alter cell cycle distribution
- % positive [2]: 13.41%
- Z score [2]: 6.4339
- IC50 [1, 9]: > 40 µM

SMILES: O=C(OCn1ncc(Cl)c(Cl)c1=O)c1cccc(C(F)(F)F)c1 [SMIP005]
- specificity for killing S14 prostate cancer cells versus IMR90 (LNCaP-S14 cells): good specificity
- accumulation of p27, fold-induction normalized to DMSO ([2]; SMIP concentration 1): 0.02 fold
- accumulation of p27, fold-induction normalized to DMSO ([2]; SMIP concentration 5): 1.76 fold
- accumulation of p27, fold-induction normalized to DMSO ([2]; SMIP concentration 10): 3.23 fold
- accumulation of p27, fold-induction normalized to DMSO ([2]; SMIP concentration 20): 3.93 fold
- accumulation of p27, fold-induction normalized to DMSO [2, 10]: 7.26 fold
- IC50 [1, 8]: 17.4 µM

SMILES: CCCCc1ccc(NC(C)=O)c(C)c1 [SMIP004, N-(4-butyl-2-methyl-phenyl)acetamide]
- p27 upregulation by immunoblotting relative to DMSO (p27 levels in S14 cells): approximately two-fold
- induction of p27 in cytoplasmic and nuclear fractions (p27 levels in S14 cells; 18 h, increasing concentrations): robust, dose-dependent induction
- p27 mRNA (p27 mRNA): upregulated
- nuclear p53 protein level [3]: not induced
- SKP2 mRNA (SKP2 mRNA): down-regulated
- p27 accumulation in parental LNCaP cells [4]: led to p27 accumulation
- IC50 (LNCaP-S14 cells; Homo sapiens): 1.09 µM
- specificity for killing S14 prostate cancer cells versus IMR90 (LNCaP-S14 cells): highest specificity
- p21 mRNA (p21 mRNA): upregulated
- effect on cell cycle distribution (LNCaP cells): induced a cell cycle arrest in G1
- p27 accumulation in DU145 cells [5]: active
- effect on cell cycle distribution (S14 cells): induced a cell cycle arrest in G1
- cyclin E (cyclin E): suppressed
- SKP2 and Myc-SKP2 protein level [6]: downregulated
- effective concentrations in primary screen and follow-up assays [2]: 5 to 40 µM
- accumulation of p27, fold-induction normalized to DMSO ([2]; SMIP concentration 1): 0.49 fold
- accumulation of p27, fold-induction normalized to DMSO ([2]; SMIP concentration 5): 0.51 fold
- accumulation of p27, fold-induction normalized to DMSO ([2]; SMIP concentration 10): 1.45 fold
- accumulation of p27, fold-induction normalized to DMSO ([2]; SMIP concentration 20): 3.99 fold
- accumulation of p27, fold-induction normalized to DMSO [2, 10]: five-fold
- accumulation of p27, fold-induction normalized to DMSO ([2]; SMIP concentration 40 (maximum dose), listed as 004): 5.16 fold
- % positive [2]: 51.08%
- Z score [2]: 33.7296
- IC50 ([1]; Homo sapiens, IMR-90, 72 h, Table 5, read-out: IC50, IMR90): > 20 µM
- IC50 ([1]; Homo sapiens, IMR-90, 96 h, Table 5, read-out: IC50, IMR90): > 20 µM
- IC50 [1, 9]: > 20 µM
- IC50 ([7]; 72 h): 40 µM
- IC50 ([7]; 96 h): 2.4 µM

SMILES: CC(C)C[C@@H](C=O)NC(=O)[C@H](CC(C)C)NC(=O)[C@H](CC(C)C)NC(=O)OCc1ccccc1 [MG132, reference compound] (Cbz-Leu-Leu-Leu-aldehyde)
- p27 levels in S14 cells, control compounds (p27 levels in S14 cells): restored
- primary screen outcome ([2]; primary screen, 17-80 μM, duplicate): re-isolated

SMILES: CC(C)(C)c1cc2cc(NC(=O)c3cccs3)ccc2[nH]1 [SMIP001, N-(2-tert-butyl-(1H)-indol-5-yl)-thiophene-2-carboxamide]
- p27 upregulation by immunoblotting relative to DMSO (p27 levels in S14 cells): approximately two-fold
- specificity for killing S14 prostate cancer cells versus IMR90 (LNCaP-S14 cells): highest specificity
- effect on cell cycle distribution (LNCaP cells): induced a cell cycle arrest in G1
- effect on cell cycle distribution (S14 cells): induced a cell cycle arrest in G1
- accumulation of p27, fold-induction normalized to DMSO ([2]; SMIP concentration 1): 0.94 fold
- accumulation of p27, fold-induction normalized to DMSO ([2]; SMIP concentration 5): 1.21 fold
- accumulation of p27, fold-induction normalized to DMSO ([2]; SMIP concentration 10): 1.74 fold
- accumulation of p27, fold-induction normalized to DMSO ([2]; SMIP concentration 20): 2.16 fold
- accumulation of p27, fold-induction normalized to DMSO [2, 10]: 2.90 fold
- % positive [2]: 13.27%
- Z score [2]: 6.3312
- IC50 [1, 9]: > 20 µM

SMILES: O=C(OCn1ncc(Cl)c(Cl)c1=O)c1ccc(C(F)(F)F)cc1 [SMIP006]
- p27 upregulation by immunoblotting relative to DMSO (p27 levels in S14 cells): approximately two-fold
- IC50 (LNCaP-S14 cells): 6.63 µM
- accumulation of p27, fold-induction normalized to DMSO ([2]; SMIP concentration 1): 0.64 fold
- accumulation of p27, fold-induction normalized to DMSO ([2]; SMIP concentration 5): 0.86 fold
- accumulation of p27, fold-induction normalized to DMSO ([2]; SMIP concentration 10): 0.88 fold
- accumulation of p27, fold-induction normalized to DMSO ([2]; SMIP concentration 20): 2.30 fold
- accumulation of p27, fold-induction normalized to DMSO [2, 10]: 7.54 fold

SMILES: CC(=O)Nc1ccc(S(=O)(=O)N(Cc2ccc3c(c2)CCO3)C2CC2)cc1 [SMIP017]
- IC50 (LNCaP-S14 cells): 23.7 µM
- IC50 [1, 8]: > 40 µM

SMILES: CCOC(=O)c1cc2cccc(NC(=O)c3ccccc3OC(C)=O)c2[nH]1 [SMIP011]
- IC50 (LNCaP-S14 cells): > 40 µM
- IC50 [1, 8]: ~40 µM

SMILES: CC1CN(C(=O)c2cc(-c3ccc(Cl)cc3)cs2)CC(C)O1 (mixture of isomers) [SMIP002]
- IC50 (LNCaP-S14 cells): 11.1 µM
- accumulation of p27, fold-induction normalized to DMSO ([2]; SMIP concentration 1): 0.15 fold
- accumulation of p27, fold-induction normalized to DMSO ([2]; SMIP concentration 5): 0.31 fold
- accumulation of p27, fold-induction normalized to DMSO ([2]; SMIP concentration 10): 0.36 fold
- accumulation of p27, fold-induction normalized to DMSO [2, 10]: 0.96 fold
- IC50 [1, 8]: > 40 µM

SMILES: CC[C@H](CO)Nc1nc(NCc2ccccc2)c2ncn(C(C)C)c2n1 [roscovitine, reference compound]
- p27 levels in S14 cells, control compounds (p27 levels in S14 cells): upregulated p27

SMILES: Cc1cc(Br)ccc1NC(=O)CCCc1c[nH]c2ccccc12 [SMIP019]
- p27 upregulation by immunoblotting relative to DMSO (p27 levels in S14 cells): approximately two-fold
- IC50 [1, 8]: ~40 µM

Like-named read-outs stand apart in the source and are kept apart here. Where a SMILES comes first, the peptide text is derived from it. The star is where a group is joined. Cbz = O=C(OCc1ccccc1)*
